Experimental data taken from the supplement of paper PMC10126150.
Values marked as one replicate rest on one cluster of the flow cell; about a third of the high ones do not repeat.
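Further: ATP exposure 15 min at 22 °C before imaging.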

The sequences below were run on ATP (assay: switch fluorescence ratio, 500 uM ATP over buffer (Cy3 cluster intensity, sum of 5 cycles each) (fold (ratio)); higher = stronger signal-on switching upon ATP binding; sequences stand for … in TCGTCGGCAGCGTCAGATGTGTATAAGAGACAGTTTTTTTTTTTTTTTTTTTTTTTTT…TC). Conditions: aptamer strand: ATP DNA aptamer (quencher-CACCTGGGGGAGTATTGCGGAGGAAGG + anchor), 100 nM annealed; ATP concentration: 500 uM; one replicate.
Outline: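 After annealing to 100 nM quencher-labelled ATP aptamer, Cy3-labelled switching-strand clusters on a modified Illumina MiSeq flow-cell were imaged in selection buffer. A second image followed after 15 min with 500 uM ATP at 22 °C, and five such buffer/ATP cycles were done, each separated by NaOH stripping and re-annealing. The fluorescence ratio, averaged per switch-domain sequence, is summed target-cycle over summed buffer-cycle Cy3 intensity per cluster, with clusters outside 100-1000 RFU excluded.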
ATCTGTTAT was tested, and the switch fluorescence ratio was 0.993.
Work on ATCTGTTTGT yielded a switch fluorescence ratio of 0.998.
Sequence ATCTTAGAAT has a switch fluorescence ratio of 0.951.
Sequence ATCTTAGGTC has a switch fluorescence ratio of 1.
Work on ATCTTGTCAG yielded a switch fluorescence ratio of 1.
For ATCTTTTACC, the switch fluorescence ratio was 1.06.
Work on ATCTTTTAT yielded a switch fluorescence ratio of 1.01.
With ATGAAAACAT the switch fluorescence ratio was 1.01.
Sequence ATGAAACTTA has a switch fluorescence ratio of 1.02.
With ATGAAAGATG the switch fluorescence ratio was 1.02.
Work on ATGAAAGCGC yielded a switch fluorescence ratio of 1.02.
ATGAAATCA gave a switch fluorescence ratio of 1.05.
For ATGAACTAGC, the switch fluorescence ratio was 1.03.
Work on ATGAAGAGTT yielded a switch fluorescence ratio of 0.984.
For ATGAAGCGC, the switch fluorescence ratio was 1.08.
For ATGAAGTCCG, the switch fluorescence ratio was 1.02.
In the case of ATGAATCGAG, the switch fluorescence ratio is reported as 0.972.
For ATGAATCGCT, the switch fluorescence ratio was 1.02.
ATGAATCGTG showed a switch fluorescence ratio of 1.
Sequence ATGAATGGGC has a switch fluorescence ratio of 0.965.
In the case of ATGAATTACG, the switch fluorescence ratio is reported as 1.04.
ATGAATTGG gave a switch fluorescence ratio of 0.995.
ATGACATACA showed a switch fluorescence ratio of 1.21.
ATGACCCAAT showed a switch fluorescence ratio of 1.08.
ATGACCGAGT was tested, and the switch fluorescence ratio was 1.02.
In the case of ATGACGTCGG, the switch fluorescence ratio is reported as 0.989.
For ATGACTTCCA, the switch fluorescence ratio was 1.03.
Work on ATGAGAATAC yielded a switch fluorescence ratio of 1.11.
Work on ATGAGGCATG yielded a switch fluorescence ratio of 1.03.
In the case of ATGAGGGTC, the switch fluorescence ratio is reported as 1.04.
ATGAGGTAGT was tested, and the switch fluorescence ratio was 0.998.
ATGAGTACCT gave a switch fluorescence ratio of 1.09.
Work on ATGAGTCGAG yielded a switch fluorescence ratio of 0.973.
For ATGAGTGCGA, the switch fluorescence ratio was 1.01.
With ATGAGTGGTT the switch fluorescence ratio was 0.987.
ATGATCATC was tested, and the switch fluorescence ratio was 1.01.
ATGATCCACC was tested, and the switch fluorescence ratio was 1.1.
Work on ATGATGGATG yielded a switch fluorescence ratio of 0.976.
Work on ATGATGGGAA yielded a switch fluorescence ratio of 0.974.
ATGATGTTTA gave a switch fluorescence ratio of 1.02.
With ATGATTCAAG the switch fluorescence ratio was 1.
ATGCAACGA was tested, and the switch fluorescence ratio was 1.02.
Work on ATGCAATTCA yielded a switch fluorescence ratio of 1.08.
Sequence ATGCACAACA has a switch fluorescence ratio of 1.06.
ATGCACCGGC gave a switch fluorescence ratio of 1.11.
ATGCATTCA was tested, and the switch fluorescence ratio was 1.06.
ATGCCAGCTG showed a switch fluorescence ratio of 0.978.
Sequence ATGCCATATT has a switch fluorescence ratio of 0.972.
For ATGCCCGGTG, the switch fluorescence ratio was 1.02.
With ATGCCCTAGC the switch fluorescence ratio was 1.06.
Sequence ATGCCGAACG has a switch fluorescence ratio of 1.06.
With ATGCCGCCAG the switch fluorescence ratio was 1.
ATGCCTAAGG showed a switch fluorescence ratio of 0.979.
ATGCCTCTGC showed a switch fluorescence ratio of 0.947.
ATGCGAACAG showed a switch fluorescence ratio of 0.994.
For ATGCGACTGT, the switch fluorescence ratio was 0.958.
ATGCGGAGAC showed a switch fluorescence ratio of 1.05.
For ATGCGTGGTC, the switch fluorescence ratio was 0.961.
Sequence ATGCGTTCTT has a switch fluorescence ratio of 1.
ATGCTACAGT showed a switch fluorescence ratio of 1.02.
ATGCTACTTT showed a switch fluorescence ratio of 0.993.
Sequence ATGCTATTCG has a switch fluorescence ratio of 0.977.
Sequence ATGCTCAGGC has a switch fluorescence ratio of 0.983.
ATGCTCTCGA showed a switch fluorescence ratio of 1.01.
With ATGCTCTCGC the switch fluorescence ratio was 0.991.
ATGCTGCATG showed a switch fluorescence ratio of 0.964.
Work on ATGCTTAAGA yielded a switch fluorescence ratio of 1.
ATGCTTAATT showed a switch fluorescence ratio of 0.987.
Work on ATGCTTAGGC yielded a switch fluorescence ratio of 0.984.
ATGCTTCCAA was tested, and the switch fluorescence ratio was 1.02.
Work on ATGGAACATA yielded a switch fluorescence ratio of 1.03.
In the case of ATGGAAGGT, the switch fluorescence ratio is reported as 1.22.
For ATGGAAGGTG, the switch fluorescence ratio was 1.52.
Sequence ATGGACATGT has a switch fluorescence ratio of 0.982.
ATGGACGCTT showed a switch fluorescence ratio of 1.07.
For ATGGAGGTTC, the switch fluorescence ratio was 1.02.
For ATGGATCGAA, the switch fluorescence ratio was 1.01.
ATGGATGTAG showed a switch fluorescence ratio of 1.02.
For ATGGCCCTGG, the switch fluorescence ratio was 1.03.
ATGGCGAAAG showed a switch fluorescence ratio of 1.04.
ATGGCGGTGT gave a switch fluorescence ratio of 1.02.
ATGGCGTACG was tested, and the switch fluorescence ratio was 0.999.
Sequence ATGGCGTG has a switch fluorescence ratio of 0.978.
Work on ATGGCTAGAC yielded a switch fluorescence ratio of 1.1.
ATGGCTCAGA was tested, and the switch fluorescence ratio was 0.959.
ATGGCTTCTT showed a switch fluorescence ratio of 1.02.
ATGGGAAATG was tested, and the switch fluorescence ratio was 1.03.
In the case of ATGGGACCAA, the switch fluorescence ratio is reported as 1.05.
ATGGGACGGA was tested, and the switch fluorescence ratio was 1.04.
In the case of ATGGGCAAAT, the switch fluorescence ratio is reported as 0.958.
With ATGGGCAGAC the switch fluorescence ratio was 1.21.
ATGGGCCAAC was tested, and the switch fluorescence ratio was 1.02.
ATGGGCGATC was tested, and the switch fluorescence ratio was 1.03.
Sequence ATGGGCTGTA has a switch fluorescence ratio of 0.914.
Work on ATGGGGAAGG yielded a switch fluorescence ratio of 0.95.
ATGGGTACAG gave a switch fluorescence ratio of 0.999.
In the case of ATGGGTCATG, the switch fluorescence ratio is reported as 0.958.
Sequence ATGGGTCCGA has a switch fluorescence ratio of 0.949.
ATGGGTTCG was tested, and the switch fluorescence ratio was 1.
Work on ATGGGTTTCC yielded a switch fluorescence ratio of 0.994.
